Measured values taken from PubChem BioAssay AID445 (National Center for Advancing Translational Sciences (NCATS), 2006).
In all, about 110,000 compounds went through this assay and about 40 (0.04%) were called active. The shares of active, inactive and inconclusive entries below differ from those in the screen. Calls come from the whole dose curve; as a rule, active = well fitted curve in the direction sought with a large enough effect in the signal ratio (not every such curve was filed as active); inconclusive = small, poorly fitted or top-dose-only effect, or a change in a side signal; inactive = flat fitted curve, though single readings scatter; the % refers to the signal ratio. Potencies of inconclusive entries are doubtful fits and often do not repeat.
Potency is the fitted concentration of half-maximal effect.

Test: IkB Signaling;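 for IkBa stabilization activation: 0% = basal untreated cells and 100% = reference inhibitor full response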
Settings: ABC-DLBCL IkBa-CBG/CBR dual luciferase ratio (green luciferase fused to IkBa over red control in OCI-Ly3 lymphoma cells), 4 h; IkBa stabilization activation: at 57.1 µM (top of the series), scaled: untreated 0%, proteasome inhibitor 100% unless noted
Method in brief: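 Curves were fitted separately to fusion (green), unfused (red) and ratio luminescence, then classed by r2, magnitude and activity. Cells: OCI-Ly3, 4 h compound plus doxycycline at 37C; 10 uM MG-132 defined full response.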
With `CCc1ccc2oc(-c3ccc(NC(=O)c4cc5ccccc5o4)cc3)nc2c1` the Potency was inconclusive: 2 µM [signal inhibitor]. With `CCCNC(=O)CCCN1C(=O)CCn2nc(-c3cccn3C)cc21` the “IkBa stabilization activation” value was inactive: 0.741%. In the case of `COc1ccc(C(=O)NCc2ccc3c(c2)CCN3C(=O)c2ccccc2)cc1`, the IkBa stabilization activation was inconclusive: -0.65% [signal inhibitor]. With `COc1ccc(NS(=O)(=O)c2ccc(-c3cnc(C4CC4)o3)cc2)cc1Cl` the IkBa stabilization activation was inconclusive: 10.7% [signal inhibitor]. In the case of `COc1ccccc1-c1nnc(SCC(=O)N2CCOCC2)o1`, the Potency was inconclusive: 15.8 µM [signal inhibitor, partial curve]. With `c1ccc(-n2nnc3c(N4CCOCC4)ncnc32)cc1` the IkBa stabilization activation was inconclusive: 12.6% [signal inhibitor]. For `Cc1ccc(Cl)cc1N1CCN(C(=O)c2ccc(CS(=O)c3ccccc3)o2)CC1` (centres undefined), the IkBa stabilization activation was inconclusive: 0.192% [signal inhibitor]. With `Cc1cc(C)cc(Nc2cc(C(=O)NCCCN(C)C3CCCCC3)c3ccccc3n2)c1` the IkBa stabilization activation was inconclusive: 0.955% [signal inhibitor]. With `COc1ccc(OC)c(CCNC(=O)CCn2c(=O)c3cccn3c3ccc(F)cc32)c1` the IkBa stabilization activation was inconclusive: 2.21% [signal inhibitor]. In the case of `CCCn1nnc(NC(=O)COc2ccc(C3CCCCC3)cc2)n1`, the IkBa stabilization activation was inconclusive: -1.97% [signal inhibitor]. For `NC(N)=N[C@H](CCC(=O)O)C(=O)O`, the “IkBa stabilization activation” value was inactive: -1.52%. For `CC(C)c1ccc(NC(=O)CSC2=Nc3ccccc3C3=NC(CCC(=O)NCc4ccco4)C(=O)N23)cc1` (centres undefined), the IkBa stabilization activation was inconclusive: 3.87% [signal inhibitor]. With `CCOC(=O)c1nnc2cc(-c3ccc(Br)cc3)nn2c1C` the “IkBa stabilization activation” value was inactive: -2.58%. For `COc1ccc(C2C(=O)c3ccccc3C2=O)c(OC)c1`, the “IkBa stabilization activation” value was inactive: -0.0811%. With `CN(C)c1ccc(/C=c2\sc3n(c2=O)CCCN=3)cc1` the Potency was inconclusive: 3.98 µM [signal inhibitor, full curve]. With `CCC(C)c1c(O)nc(SCC(=O)c2ccccc2)[nH]c1=O` (centres undefined) the IkBa stabilization activation was inconclusive: 4.61% [signal inhibitor]. For `O=C(Nc1nc2c(s1)C(=O)CCC2)c1ccccc1`, the Potency was inconclusive: 7.94 µM [signal inhibitor, partial curve]. With `Cc1ccc(CN2CCCN(Cc3c(C)cc(C)cc3C)S2(=O)=O)cc1` the IkBa stabilization activation was inconclusive: -0.736% [signal inhibitor]. With `CCCSC1=NC2(CCN(C(=O)NC3CCCCC3)CC2)N=C1c1ccc(Cl)cc1` the IkBa stabilization activation was inconclusive: 4.68% [signal inhibitor]. For `Cc1cccc(-c2noc(Cc3ccc(Cl)cc3)n2)c1`, the “IkBa stabilization activation” value was inactive: -4.85%. In the case of `CC(C)(C)C(=O)OCc1cc(=O)n2nc(C3CC3)sc2n1`, the “IkBa stabilization activation” value was inactive: -3.18%. For `Cc1cccc(CNc2cc(-c3ccc(C(=O)N(C)C)cc3)ncn2)c1`, the IkBa stabilization activation was inactive: -0.853% [at 11.4 µM, scaled: untreated 0%, proteasome inhibitor 100%]. With `CC(C)Sc1oc(-c2ccco2)nc1S(=O)(=O)c1ccc(F)cc1` the “IkBa stabilization activation” value was inactive: 7.26%. With `O=c1c(-c2ccc(F)cc2)nc2cnc(N3CCNCC3)nc2n1-c1ccccc1` the IkBa stabilization activation was inactive: -1.78% [at 11.4 µM, scaled: untreated 0%, proteasome inhibitor 100%]. With `COc1ccc(-c2nnn(CC(=O)c3ccc4c(c3)OCCO4)n2)cc1OC` the IkBa stabilization activation was inconclusive: 3.76% [signal inhibitor]. With `CCCN(CCC)c1nn2c(=O)c(C(=O)NCc3cc(Br)ccc3OC)cnc2s1` the IkBa stabilization activation was inconclusive: 4.93% [signal inhibitor]. In the case of `COc1cc(Cl)c(C)cc1NC(=O)Cn1cc(S(=O)(=O)N2CCC(C)CC2)c2ccccc2c1=O`, the “IkBa stabilization activation” value was inactive: 6.39%. In the case of `O=C(C1CCN(S(=O)(=O)c2cccc3nsnc23)CC1)N1CCCc2ccccc21`, the IkBa stabilization activation was inconclusive: 0.302% [signal inhibitor]. In the case of `Cc1ccc(C)c(NC(=O)CSc2nc3c([nH]c4ccccc43)c(=O)n2-c2ccc(F)cc2)c1`, the IkBa stabilization activation was inconclusive: 2.27% [signal inhibitor]. With `Cc1ccc2cc(CN(Cc3ccco3)C(=O)NCc3ccccc3)c(=O)[nH]c2c1C` the IkBa stabilization activation was inconclusive: 2.1% [signal inhibitor]. With `COc1ccc(CC(=O)NCC(c2ccc(Cl)cc2)N2CCOCC2)cc1` (centres undefined) the IkBa stabilization activation was inconclusive: 3.81% [signal inhibitor]. For `O=C(c1c(O)c2ccccc2oc1=O)C1CCC1`, the IkBa stabilization activation was inconclusive: 11.6% [signal inhibitor]. With `Cc1ccc(Cc2cn3cc(-c4ccccc4)nc3s2)cc1` the IkBa stabilization activation was inconclusive: 10.7% [signal inhibitor]. For `Cc1ccc2c(c1)C(=O)[C@@]1(O)CCN(c3ccccc3)C1=N2`, the “IkBa stabilization activation” value was inactive: 0.676%. In the case of `CN(C)C[C@@H](O)c1ccc(Cl)c2ccccc12`, the IkBa stabilization activation was inactive: 0.639% [at 11.4 µM, scaled: untreated 0%, proteasome inhibitor 100%]. For `COc1ccc(NS(=O)(=O)c2ccc(Br)s2)cc1OC`, the IkBa stabilization activation was inconclusive: 1.85% [signal inhibitor]. In the case of `CCc1ccc(NC(=O)C2CCCN(S(=O)(=O)c3ccc(F)cc3)C2)cc1` (centres undefined), the IkBa stabilization activation was inconclusive: 1.49% [signal inhibitor]. For `CCN(Cc1ccccc1)C(=O)Cn1c(=O)n(-c2ccc(Cl)cc2)c(=O)c2c(C)c(C)sc21`, the IkBa stabilization activation was inconclusive: 0.613% [signal inhibitor]. For `CCOC(=O)c1c(C)c(C(=O)NCc2ccc3c(c2)OCO3)c(C)n1CC`, the “IkBa stabilization activation” value was inactive: -0.73%. With `O=C(Nc1sc2c(c1C(=O)NCc1ccccc1)CCCC2)c1cc(=O)c2ccccc2o1` the IkBa stabilization activation was inconclusive: 3.69% [signal inhibitor]. For `CCOc1ccccc1C(=O)NCC(c1cccs1)S(=O)(=O)c1ccc(F)c(C)c1` (centres undefined), the IkBa stabilization activation was inconclusive: 3.42% [signal inhibitor]. For `O=C1Nc2ccc(I)cc2/C1=C/c1cc(Br)c(O)c(Br)c1`, the IkBa stabilization activation was inconclusive: -0.0426% [signal inhibitor]. For `Cc1ccc(C)c(N2CCN(C(=O)c3ccc4c(=O)n(CCc5ccccc5)c(=O)[nH]c4c3)CC2)c1`, the IkBa stabilization activation was inconclusive: 3.48% [signal inhibitor]. With `O=C(O)c1ccccc1C(=O)Nc1cc2c(cc1Br)-c1ccccc1C2=O` the IkBa stabilization activation was inactive: 1.52% [at 11.4 µM, scaled: untreated 0%, proteasome inhibitor 100%]. In the case of `O=P(O)(O)C(O)C(F)(F)C(F)(F)C(F)(F)C(F)F` (centres undefined), the “IkBa stabilization activation” value was inactive: 0.514%. For `COc1cc(NC(=O)C2=CC(c3ccco3)=NS(=O)(=O)N2C)cc(OC)c1OC`, the “IkBa stabilization activation” value was inactive: 1.1%. With `COc1ccc(C(=O)C(CN2CCOCC2)c2ccccc2)cc1F` (centres undefined) the Potency was inconclusive: 31.6 µM [rising, partial curve]. In the case of `CCOC(=O)c1[nH]c2c(c1Cc1ccccc1OC)C(=O)CC(c1ccccc1)C2` (centres undefined), the IkBa stabilization activation was inconclusive: -5.32% [signal inhibitor]. In the case of `CCCCn1c(=O)c2oc3ccccc3c2n(Cc2ccccc2C)c1=O`, the IkBa stabilization activation was inconclusive: 1.31% [signal inhibitor]. In the case of `O=C(COc1ccc(F)cc1)Nc1ccccc1C(=O)OCc1cc(=O)n2ccsc2n1`, the IkBa stabilization activation was inconclusive: 0.284% [signal inhibitor]. For `Cc1nc2ccccc2c2oc(C(=O)NCC3COc4ccccc4O3)cc12` (centres undefined), the IkBa stabilization activation was inconclusive: -9.1% [signal inhibitor]. With `NC(=O)c1ccccc1NC(=O)CN1c2ccccc2S(=O)(=O)c2ccccc21` the IkBa stabilization activation was inconclusive: -0.261% [signal inhibitor]. For `O=C(NCc1ccc2c(c1)OCO2)c1ccc2snnc2c1`, the “IkBa stabilization activation” value was inactive: 2.04%. For `CCOC(=O)c1oc2ccc(Br)cc2c1NC(=O)CN1CCN(C)CC1`, the “IkBa stabilization activation” value was inactive: -2.08%. With `Oc1ccc2ccccc2c1/C=C\c1ccc2c(Br)cc(Br)c(O)c2n1` the IkBa stabilization activation was inactive: 9.29% [at 11.4 µM, scaled: untreated 0%, proteasome inhibitor 100%]. With `Cc1ccc(NC(=O)Cn2cccc2)cc1C` the “IkBa stabilization activation” value was inactive: 0.0606%. With `c1ccc(-c2n[nH]c(-c3ccccn3)n2)nc1` the “IkBa stabilization activation” value was inactive: 14.9%. With `N#Cc1ccc2ccn(CC(=O)NC3CCCCCC3)c2c1` the “IkBa stabilization activation” value was inactive: 0.242%. For `O=C(Nc1cc(-c2ccccc2F)nn1-c1ccccc1)c1ccccc1Br`, the IkBa stabilization activation was inconclusive: -0.358% [signal inhibitor]. In the case of `CCCCCOC(=O)CSc1nc2sc3c(c2c(=O)n1-c1ccccc1)CC(C)(CC)OC3` (centres undefined), the IkBa stabilization activation was inconclusive: 6.48% [signal inhibitor]. In the case of `CC1CCN(C(=O)Cn2cc(SCC(=O)Nc3ccccc3)c3ccccc32)CC1`, the “IkBa stabilization activation” value was inactive: 0.0171%. For `CCOC(=O)c1noc2ncnc(N3CCN(c4cccc(C(F)(F)F)c4)CC3)c12`, the IkBa stabilization activation was inconclusive: -1.28% [signal inhibitor]. In the case of `COc1ccc(Cn2c(=O)n(-c3ccc(OC)cc3)c(=O)c3c2c2cc(OC)ccc2n3C)cc1`, the IkBa stabilization activation was inconclusive: 1.91% [signal activator]. In the case of `O=C(c1cc(-c2ccc3c(c2)OCO3)on1)N1CCOCC1`, the Potency was inconclusive: 20 µM [signal inhibitor, partial curve]. For `Cc1ccc(OCc2nc(-c3ccccn3)no2)c(Br)c1`, the “IkBa stabilization activation” value was inactive: 0.0654%. In the case of `CC(=O)N1CCC2(CCCN(C(c3ccccc3)c3ccccc3)C2)CC1`, the IkBa stabilization activation was inactive: 7.95% [at 11.4 µM, scaled: untreated 0%, proteasome inhibitor 100%]. In the case of `COc1ccc(-c2cc(C)no2)cc1S(=O)(=O)NCc1ccco1`, the IkBa stabilization activation was inconclusive: 6.85% [signal activator]. For `CCN(CC)S(=O)(=O)c1ccc2c(c1)c(=O)c(C(=O)NCc1ccccc1Cl)cn2C`, the IkBa stabilization activation was inconclusive: -1.97% [signal inhibitor]. In the case of `COc1ccc(-n2c(SCc3ccccc3F)nc3c([nH]c4ccccc43)c2=O)cc1OC`, the IkBa stabilization activation was inconclusive: 1.07% [signal inhibitor].
